This note sets out measurements from PubChem BioAssay AID1963576 (National Center for Advancing Translational Sciences (NCATS), 2024).

Out of some 46,000 compounds screened, about 60 (0.1%) were called active. Roughly 3% stayed inconclusive and do not appear here. Calls come from the whole dose curve; as a rule, active = well fitted inhibition curve with a large enough effect; inconclusive = small, poorly fitted or top-dose-only effect; inactive = no such curve, though single readings can be large or run the other way. The list shows a part of the results.

The experiment can be described thus: Primary qHTS assay for Inhibitors of ovarian cancer metastasis using an organotypic tumor microenvironment (TME) model.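 For activity change, negative = inhibition: plate controls were DMSO wells for no effect and tomatine positive control wells for full effect.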 Note: nearly all actives have a fitted effect of over 65% in size. Particulars: SKOV3ip1-GFP adhesion/invasion on 3D omental model, fluorescence; series mostly up to 45.8 µM; activity change, negative = inhibition: at the top concentration. In a few lines:
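Adhesion/invasion was scored as fixed GFP-labeled SKOV3ip1 cell counts (488/509 nm), normalized to DMSO and tomatine controls. Cancer cells in serum-free medium, with four compound doses (0.36-46 umol/L), sat 2 hr at RT then 16 hr at 37 C on a 48 hr fibroblast/mesothelial/ECM culture.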
In general terms: Quantitative high-throughput screening tests each substance at several concentrations.
As to `CC1(C)CC(=O)c2cc(-c3nc(-c4ccc(Cl)cc4)cs3)c(=O)n(-c3ccc(Cl)cc3)c2C1`, the “activity change, negative = inhibition” value was inactive: -21.9%.
For `COc1ccc(NC(=O)CSc2nc3ccccc3n2CC(=O)N(C)c2ccc(F)cc2)cc1`, the “activity change, negative = inhibition” value was inactive: -6.47%.
In the case of `COc1ccc(OCCCCn2c(C3CC(=O)N(c4cccc(Cl)c4)C3)nc3ccccc32)cc1` (stereo unspecified), the result was inactive.
`Cc1ccc(Cn2ccnc2SCC(=O)NCc2ccc(F)cc2)cc1`: the call was inactive.
As for `Cc1ccc(NC(=O)/C(C#N)=C/c2ccc(C)o2)cc1`, the “activity change, negative = inhibition” value is inactive: -5.12%.
Turning to `CC(C)CCNC(=O)c1ccc2c(c1)NC(=O)C(CS(=O)(=O)Cc1cccc(Br)c1)N2` (stereo unspecified), the result was inactive.
Take `COc1ccc(CCNc2ncnc3c2cnn3-c2cccc(Cl)c2)cc1`: the “activity change, negative = inhibition” value is inactive: -1.32%.
Same read-out and setting: the result for `Cc1cc(C)n(CCc2nc3c4ccccc4nc(N4CCN(c5ccccc5F)CC4)n3n2)n1` reads inactive: 7.32%.
`C#CC(C)(CC)NC(=O)c1cnn2c(C(F)F)cc(-c3ccccc3OC)nc12` (stereo unspecified): the call was inactive.
Turning to `CCOc1ccc(NC(=O)c2cn(C)c(=O)c3cc(OC)c(OC)cc23)cc1`, the “activity change, negative = inhibition” value was inactive: -5.6%.
As for `CCS(=O)(=O)N1CCc2cc(C(=O)NCCc3ccccc3)ccc21`, the call was inactive.
On the same count and under the same terms, the result for `CCCN1CCN(CCNC(=O)Nc2ccc(OC)c(OC)c2)CC1` reads “inactive”.
In the case of `CCOC(=O)C1CCC(CN(Cc2ccc(Cl)cc2)S(=O)(=O)c2ccc(Br)cc2)CC1` (stereo unspecified), the “activity change, negative = inhibition” value is inactive: 7.17%.
Consider `CN1C(=O)C2(SCC(=O)N2c2cccc(C(F)(F)F)c2)c2ccccc21` (stereo unspecified), for which the result was inactive.
On to `CCOC(=O)C1CCN(CC(=O)N2CCCc3c2c(=O)oc2ccc(OCc4ccccc4)cc32)CC1`, for which the molecule was classed as inactive.
Still for that read-out and setting: the result for `CCN(CCCNC(=O)c1cc2cc3ccc(C)cc3nc2s1)c1ccccc1` reads “inactive”.
On to `CCCN(c1ccccc1CC)S(=O)(=O)c1ccc2c(c1)CC(C)N2C(=O)C1CC1` (stereo unspecified), for which the “activity change, negative = inhibition” value was inactive: -5.03%.
As for `CCS(=O)(=O)N1CC(=O)N(c2cccc(Cl)c2C)C(C)(C(=O)NC2CCCCC2)C1` (stereo unspecified), the outcome was inactive.
Turning to `O=S(=O)(c1cccc(F)c1)N1CCC(c2nc3ccccc3s2)CC1`, the “activity change, negative = inhibition” value is inactive: 0.406%.
The same measure, in the same setting: to `Cc1ccc(NC(=O)c2oc3ccc(S(=O)(=O)N(C)C4CCCCC4)cc3c2C)cc1Cl` belongs inactive: -1.91%; to `COc1ccc(-c2nc(CSCC(=O)N3CCN(c4ccc(OC)cc4)CC3)c(C)o2)cc1`, inactive: 16.6%.
As to `COCCNC(=O)CCCN1C(=O)c2ccccc2Sc2ncccc21`, the “activity change, negative = inhibition” value is inactive: 8.25%.
Turning to `Cc1nnc(SCC(=O)Nc2ccc(Br)cc2)[nH]c1=O`, the “activity change, negative = inhibition” value is inactive: -12.3%.
In the case of `COc1cccc(-c2nc(CSCC(=O)NCCc3ccc(Cl)cc3)c(C)o2)c1`, the “activity change, negative = inhibition” value was inactive: 0.998%.
As for `COc1cccc2c1cc1c(=O)n(CC(=O)NC3CC3)nc(C)n12`, the call was inactive.
`CC(=O)N1CCc2cc(S(=O)(=O)NC(CC(C)C)C(=O)NCc3ccccc3)ccc21` (stereo unspecified): the “activity change, negative = inhibition” value was inactive: 1.7%.
Turning to `O=c1c(=O)n(-c2cccc(Cl)c2)ccn1Cc1cccc(F)c1`, the outcome was inactive.
For `CCCCN(CCCC)CC(O)Cn1cc(/C=C/C(=O)c2ccccc2)c2ccccc21` (stereo unspecified), the “activity change, negative = inhibition” value was inactive: -4.06%.
As for `CCOc1ccc(NC(=O)C(NC(=O)C2CCC(C)CC2)C(C)C)cc1` (stereo unspecified), the “activity change, negative = inhibition” value is inactive: -1.11%.
As to `C[C@](Cc1c[nH]c2ccccc12)(NC(=O)OC1C2CC3CC(C2)CC1C3)C(=O)NC[C@H](NC(=O)CCC(=O)O)c1ccccc1` (stereo partly specified), the “activity change, negative = inhibition” value is inactive: 1.99%.
With `CCOC(=O)c1cc(-c2ccccc2)n(CC(=O)N(C)c2ccc(OC)cc2)c1C`, the “activity change, negative = inhibition” value is inactive: -9.2%.
As to `COc1cc(-c2nc(Cn3nnc(C(=O)Nc4cc(C)cc(C)c4)c3C)c(C)o2)cc(OC)c1OC`, the call was inactive.
With `COc1ccc(C)cc1Nc1nc(-c2cccc(Cl)c2)c2c(n1)-c1ccccc1OC2`, the “activity change, negative = inhibition” value is inactive: -4.93%.
Consider `Cc1ccc(-c2nc(N3CCN(c4ccccc4Cl)CC3)c3ccccc3n2)cc1`, for which the “activity change, negative = inhibition” value was inactive: 6.27%.
As for `CCCCC(CC)CNC(=O)CCCn1c(=O)[nH]c2ccsc2c1=O` (stereo unspecified), the “activity change, negative = inhibition” value was inactive: 0.923%.
For the molecule `CCN1CCN(c2c(S(=O)(=O)c3ccc(C)c(C)c3)cnc3cc(OC)c(OC)cc23)CC1`, the “activity change, negative = inhibition” value was inactive: -4.79%.
As to `Cc1cccc(-n2c(=O)c3c4c(sc3n3cnnc23)CCCC4)c1`, the molecule was classed as inactive.
Turning to `CCN(CC)C(=O)c1sc2c(c1C)c(=O)n(-c1ccccc1)c(=O)n2CC(=O)Nc1ccc(C)cc1C`, the “activity change, negative = inhibition” value is inactive: 1.97%.
As to `Cc1cc(=O)n(Cc2cccc(Cl)c2)c2c1c(C)nn2-c1ccccc1`, the result was inactive.
For the molecule `Cc1cc(C)cc(NC2=CC(c3cccc(F)c3)N(c3cc(C)cc(C)c3)C2=O)c1` (stereo unspecified), the “activity change, negative = inhibition” value is inactive: 31.5%.
Consider `CCOc1ccc(CC(=O)NCCc2sc3nc(-c4ccc(OC)cc4)nn3c2C)cc1`, for which the “activity change, negative = inhibition” value is inactive: -13.7%.
Regarding `CC1CCN(C(=O)Cn2c(=O)oc3cc(S(=O)(=O)N4CCCCC4)ccc32)CC1`, the “activity change, negative = inhibition” value was inactive: 0.124%.
Turning to `Cc1ccc(CNC(=O)c2ccc(Cn3c(SCc4ccccc4F)nc4cccnc43)cc2)cc1`, the outcome was inactive.
With `CN(C)S(=O)(=O)c1ccc(C(=O)N2CC(=O)Nc3ccc(Br)cc3C2c2ccc(F)cc2)cc1` (stereo unspecified), the “activity change, negative = inhibition” value is inactive: 1.64%.
The same measure, in the same setting: the result for `CCOc1cc(CNc2ccc(O)cc2)ccc1OCc1ccc(Cl)cc1` reads inactive: -16.3%; that for `CCOC(=O)c1cc2c(=O)n3ccccc3nc2n(CCCOC)c1=NC(=O)C(C)Oc1ccccc1` (stereo unspecified), inactive: -0.934%; that for `COc1ccc(CNC(=O)CN(c2ccccc2)S(=O)(=O)N(C)C)cc1`, inactive: 8.88%.
On the same count and under the same terms, to `COc1ccc(C(CNC(=O)COc2ccc(Cl)c(C)c2)N2CCOCC2)cc1` (stereo unspecified) belongs inactive: -2.89%.
In the case of `CCOC(=O)Cn1cnc2onc(-c3ccc(F)cc3)c2c1=O`, the molecule was classed as inactive.
Take `CCCCSc1ncnc2c1c(-c1ccccc1)cn2-c1cccc(F)c1`: the “activity change, negative = inhibition” value was inactive: -0.0841%.
Consider `CCN(CC)S(=O)(=O)c1nnc(NC(=O)COc2ccc(Cl)cc2)s1`, for which the “activity change, negative = inhibition” value was inactive: -0.501%.
Regarding `CCn1c(C(=O)N2CCC(C(=O)NCCc3ccc(OC)cc3OC)CC2)cc2sccc21`, the “activity change, negative = inhibition” value was inactive: 4.52%.
In the case of `CCOC(=O)c1c(C)oc2nc(C)nc(Nc3ccc(CC)cc3)c12`, the “activity change, negative = inhibition” value was inactive: 2.03%.
Still for that read-out and setting: to `Cc1cc(C)cc(NS(=O)(=O)c2ccc3c(c2)NC(=O)C(C)S3)c1` (stereo unspecified) belongs inactive: 0.445%; to `COc1ccc(NC(=O)c2ccc(-c3nc(CSc4ccccc4)c(C)o3)cc2)cc1OC`, inactive: -9.72%.
Consider `COc1ccccc1Cc1nc2ccccc2[nH]c1=O`, for which the “activity change, negative = inhibition” value was inactive: -1.18%.
Consider `CCOCCCNC(=O)C1CCC(CNS(=O)(=O)c2ccc(NC(C)=O)cc2)CC1` (stereo unspecified), for which the “activity change, negative = inhibition” value is inactive: -12.8%.
Still for that read-out and setting: to `Cc1ccc(C)c(CN2C(=O)c3ccccc3S(=O)c3ccc(C(=O)NCc4ccccc4)cc32)c1` (stereo unspecified) belongs inactive: -7.42%.
As for `COc1cccc2c1Oc1ncccc1N(C(=O)Nc1ccc(F)c(Cl)c1)C2`, the “activity change, negative = inhibition” value is inactive: 4.81%.
Still for that read-out and setting: the result for `CCOC(=O)C(CC)Sc1ccc2nnc(CCNS(=O)(=O)c3ccc(C)cc3)n2n1` (stereo unspecified) reads inactive: 7.53%.
On to `CCN1CCN(c2c(S(=O)(=O)c3ccc(OC)cc3)cnc3cc(OC)c(OC)cc23)CC1`, for which the “activity change, negative = inhibition” value was inactive: 1.1%.
